About 4,000 (1.1%) of roughly 380,000 compounds were called active. The inconclusive results got no clear call from the source; some entries with a clear call stand among them for comparison. The call rests on the fitted dose curve; in most records, active means well fitted activation curve with a large enough effect; inconclusive means small, poorly fitted or top-dose-only effect; inactive means no such curve, though single readings can be large or run the other way. A potency beside an inconclusive call is a rough fit, not a confirmed value.
Assay: qHTS Assay to Identify Small Molecule Activators of BRCA1 Expression; further: nearly all actives have a fitted effect of over 80% in size
Details: MCF7-BRCA1-FFLuc reporter, luminescence, 48 h; activation: at 46.1 µM (top of the series), scaled: vehicle 0%, 10 µM genistein 100% unless noted
Method in brief: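 Cells: MCF7-BRCA1-FFLuc, 2000/well. Exposure: 48 h, 37 °C, 5% CO2. Read: luminescence, 15 min post-substrate. Controls: genistein 10 microM (maximal activation), DMSO (neutral).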
Potency means the concentration at half of the fitted maximal effect; tags describe the fitted curve by direction and shape.

Row | Compound | Potency | activation
1 | O=C(c1noc2c1CCc1ccccc1-2)N1CCOCC1 | inconclusive: 14.1 µM [activator, partial curve, poor fit] | 
2 | COc1cc2ccccc2cc1-c1nnc(COc2ccccc2)o1 |  | inactive: 0.882%
3 | O=C(NCc1ccccc1)Nc1cccn(Cc2ccccc2Cl)c1=O |  | inactive: -24%
4 | CN(Cc1ccccc1)C(=O)COC(=O)c1c[nH]c2ccccc12 | active: 10 µM | 
5 | O=[N+]([O-])c1ccccc1OCCOc1ccccc1[N+](=O)[O-] | inconclusive: 2.82 µM [activator, full curve, poor fit] | 
6 | CC(C)Oc1cc(O)c2c(=O)c(-c3ccc(O)cc3)coc2c1 | inconclusive: 2 µM [activator, partial curve, poor fit] | 
7 | Cc1cccc(COc2ncnc3nc[nH]c23)c1 | active: 10 µM | 
8 | COc1ccc(C(=O)Nc2cccc(-c3cnc4ccccc4n3)c2)cc1 | active: 3.98 µM | 
9 | CC(C)(C)c1nnc(NC(=O)c2cccs2)s1 | inconclusive: 1.12 µM [activator, full curve, poor fit] | 
10 | COc1ccc(C(=O)N/N=C/c2cn[nH]c2-c2ccc(OC)cc2OC)cc1 | inconclusive: 31.6 µM [activator, single point] | 
11 | Oc1ccccc1C1C=C(c2ccc3c(c2)OCO3)NC(c2ccc(F)c(Br)c2)N1 (stereo not given) |  | inactive: -2.12%
12 | Cc1cccc(-c2cc(C(=O)N3CCCc4ccccc43)c3ccccc3n2)c1 |  | inactive: -21.2%
13 | O=C(Nc1ccc2c(c1)OCCO2)c1cc(F)c(F)cc1Cl | inconclusive: 2.82 µM [activator, full curve, poor fit] | 
14 | COCC1CCN(Cc2nc(-c3ccc4c(c3)OCO4)no2)C1 (stereo not given) | inconclusive: 12.6 µM [activator, partial curve, poor fit] | 
15 | C(=C\c1ccc2ccccc2n1)/c1ccccc1 | inconclusive: 0.501 µM [activator, full curve, poor fit] | 
16 | COc1ccc(-c2cc3c(=O)n(CC(=O)NCCCc4ccccc4)ncn3n2)cc1 | inconclusive: 2.82 µM [activator, partial curve, poor fit] | 
17 | O=C(Nc1ccc2c(c1)OCO2)OCc1ccccc1 | active: 2.24 µM | 
18 | CC(=O)c1ccc(NC(=O)Nc2cccc(Cl)c2)cc1 | active: 7.08 µM | 
19 | Nc1c(C=C2C=CC(=O)C=C2)c(=O)nc2snc(SCc3ccccc3)n12 | inconclusive: 15.8 µM [activator, partial curve, poor fit] | 
20 | O=C(Cc1c(Cl)cccc1Cl)N1CCN(S(=O)(=O)c2cccs2)CC1 |  | inactive: -13.5%
21 | O=C(Nc1nc(-c2ccccn2)cs1)c1ccc([N+](=O)[O-])o1 |  | inactive: -72.1%
22 | O=C(CNC(=O)c1cccs1)c1ccc(Br)cc1 | active: 5.62 µM | 
23 | Cc1ccc(C)c(SCC(=O)Nc2nnc(-c3ccccc3)o2)c1 |  | inactive: 0.148%
24 | Cc1ccccc1/C=N/Nc1nc2ccccc2c(=O)n1O | inconclusive: 35.5 µM [activator, single point] | 
25 | COc1ccccc1CN=C1Nc2ccccc2CS1 | inconclusive: 22.4 µM [activator, single point] | 
26 | Cc1cccc(OCC(=O)Nc2cccc(-c3nnc(-c4ccccc4)o3)c2)c1C | inconclusive: 6.31 µM [activator, full curve, poor fit] | 
27 | C/C(=C\C(=S)Nc1ccccc1)Nc1ccc2ccccc2c1 |  | inactive: 23.1%

Row | Compound | Potency | activation
28 | CN(CC(=O)Nc1ccccc1Br)C(=O)c1ccccc1-c1nc2ccccc2s1 |  | inactive: -38%
29 | Cc1ccc(N/C=C/C(=O)c2cccs2)cc1 | inconclusive: 0.631 µM [activator, full curve, poor fit] | 
30 | COc1ccccc1Nc1ccc(Nc2ccccc2OC)nn1 | active: 5.01 µM | 
31 | CCN(CC)P(=O)(Nc1ccc([N+](=O)[O-])cc1)c1c(C)nn(CCC#N)c1NC(=O)c1ccc(Cl)cc1Cl (stereo not given) |  | inactive: -29.3%
32 | Cc1ccc(-c2nnc(-c3ccccc3)o2)cc1 | inconclusive: 3.16 µM [activator, partial curve, poor fit] | 
33 | O=C(NC1=NCCS1)c1cccc(F)c1 | inconclusive: 11.2 µM [activator, partial curve, poor fit] | 
34 | N/C(CC(=O)NC1CCCCC1)=N\OCC(=O)Nc1ccc(Cl)c(Cl)c1 |  | inactive: -14.9%
35 | Cc1ccc(NC(=O)/C=C/c2ccc(Cl)cc2)nc1 | inconclusive: 11.2 µM [activator, partial curve, poor fit] | 
36 | COCCNC(=O)C1Cc2c(-c3cccc(NC(C)=O)c3)ccnc2O1 (stereo not given) |  | inactive: -21.4%
37 | Cc1ccc(N(CC(=O)N2CCCCCC2)S(C)(=O)=O)cc1Cl |  | inactive: 0.0092%
38 | Cc1ccnc(S(=O)(=O)Cc2ccc([N+](=O)[O-])cc2)n1 |  | inactive: -69.8%
39 | Cc1ccc(C(CC(=O)NCc2ccco2)c2ccc(OC(C)C)cc2)cc1 (stereo not given) |  | inactive: -51.2%
40 | COc1ccc(OC)c2[nH]c(=O)c(CCNC(=O)c3cc4ccccc4o3)cc12 |  | inactive: -2.18%
41 | Nc1c(C(=O)N2CCCCC2)sc2nc3c(cc12)CCCC3 | active: 5.62 µM | 
42 | CCN1CC(O)=C(c2nc3ccccc3s2)C1=N | inconclusive: 31.6 µM [activator, single point] | 
43 | Cc1cccc(NC(=O)Nc2cc(C)cc(C)n2)c1 | active: 3.55 µM | 
44 | Cc1cc(C)nc(NC(=O)Nc2ccc3c(c2)OCO3)c1 | inconclusive: 0.891 µM [activator, full curve, poor fit] | 
45 | C=CCSc1nccc(-c2cc(Cl)sc2Cl)n1 |  | inactive: -36%
46 | C(=C\c1nnc(-c2cccs2)o1)/c1ccccc1 | inconclusive: 2.82 µM [activator, full curve, poor fit] | 
47 | COc1ccc(NC(=O)Nc2ccc(Br)cn2)cc1OC | inconclusive: 8.91 µM [activator, partial curve, poor fit] | 
48 | CCCc1nc2ccc(C)cn2c1Cc1ccsc1 | inconclusive: 31.6 µM [activator, single point] | 
49 | CCOC(=O)c1ccc(N/C=C/C(=O)C(C)(C)C)cc1 | inconclusive: 3.55 µM [activator, partial curve, poor fit] | 
50 | CCOc1ccc(CNC(=O)CCCn2nc(CC)n3c(cc4occc43)c2=O)cc1 |  | inactive: -8.31%
51 | Fc1ccc(N/N=C2/CC(c3ccccc3)Oc3ccccc32)c(F)c1 (stereo not given) |  | inactive: -4.42%
52 | CC(=O)c1ccc(NC(=S)NCCc2ccccn2)cc1 | active: 10 µM | 
53 | COc1ccc(-c2nnc(N(C)C(=O)c3ccno3)s2)cc1 | active: 5.01 µM | 
54 | COc1cccc(C(=O)OCC(=O)c2c[nH]c3ccccc23)c1OC | inconclusive: 35.5 µM [activator, single point] | 

Row | Compound | Potency | activation
55 | Nc1cc2c(cc1Cl)-c1ccccc1C2=NO | inconclusive: 10 µM [activator, partial curve, poor fit] | 
56 | CN1C(=O)C2(C(C#N)=C(N)N(c3cc(Cl)cc(Cl)c3)C3=C2C(=O)CCC3)c2ccccc21 (stereo not given) |  | inactive: 13.2%
57 | O=C(NCCn1ccc2ccccc21)c1ccc2c(c1)OCO2 | active: 2.51 µM | 
58 | COc1cc(CN2CCCC(C(=O)c3ccc4c5c(cccc35)CC4)C2)cc(OC)c1O (stereo not given) |  | inactive: -29.7%
59 | Cc1ccnc(NC(=O)c2ccc(OCC3CCCO3)cc2)c1 (stereo not given) |  | inconclusive: -64.4% [activator]
60 | COc1cc(-c2ccccc2)nc(N)n1 | inconclusive: 4.47 µM [activator, partial curve, poor fit] | 
61 | O=C(c1ccccc1)c1sc(N2CCCCCC2)nc1-c1ccccc1 |  | inactive: -20.6%
62 | Cn1cccc1C(=O)NC1CCCCCC1 | active: 10 µM | 
63 | COc1ccc(C(=O)Cc2cc3ccccc3oc2=O)cc1 | active: 4.47 µM | 
64 | Clc1ccc(CN2CCC(c3ccccc3)CC2)cc1 |  | inactive: 13.2%
65 | CC(=O)Nc1ccc(N=Cc2ccc(OCc3ccccc3)cc2)cc1 | inconclusive: 7.08 µM [activator, partial curve, poor fit] | 
66 | c1ccc2c(c1)OCC(c1nnc3sc(-c4ccc5c(c4)OCO5)nn13)O2 (stereo not given) | inconclusive: 20 µM [activator, single point] | 
67 | O=C(c1ccc(Cl)cc1)c1cnc(Nc2ccccc2Cl)s1 | inconclusive: 2.51 µM [activator, full curve, poor fit] | 
68 | CCOC(=O)c1cc(OC(=O)c2ccccc2C)n(-c2ccccc2)n1 |  | inactive: 14.8%
69 | CCOc1ccc(N2Cc3ccccc3C2)cc1 | inconclusive: 20 µM [activator, single point] | 
70 | CC1CCN(C(=O)COC(=O)c2ccc3c(c2)OCO3)CC1 | active: 2.51 µM | 
71 | Cc1ccc(NC(=O)Cn2ncc(Cl)c(Cl)c2=O)cc1S(=O)(=O)N1CCCCC1 |  | inactive: -86%
72 | CCCc1nn(C)c(C(=O)Nc2ccc(C)c(C)c2)c1Cl | inconclusive: 10 µM [activator, partial curve, poor fit] | 
73 | CCC(C)c1ccc(NC(=O)c2cccs2)cc1 (stereo not given) | inconclusive: 1.41 µM [activator, partial curve, poor fit] | 
74 | Cc1ccc(NC(=O)c2ccc(CSc3nnc(C)s3)cc2)c(C)c1 | inconclusive: 11.2 µM [activator, partial curve, poor fit] | 
75 | CC#CCCCC(=O)Nc1cccc(C(=O)O)c1 | inconclusive: 10 µM [activator, partial curve, poor fit] | 
76 | Cc1cc(Nc2ccc(Cl)cc2)nc(NCc2ccccc2)n1 |  | inactive: -84.8%
77 | CCC(NS(=O)(=O)c1ccc(OC)cc1)C(=O)O (stereo not given) |  | inactive: -9.08%
78 | COCCNC(=O)/C=C/c1c(Cl)cccc1Cl | inconclusive: 25.1 µM [activator, single point] | 
79 | COCCn1c(C)cc(C(=O)COC(=O)c2cncc(Br)c2)c1C | inconclusive: 15.8 µM [activator, partial curve, poor fit] | 
80 | CCCc1ccc2oc(C(=O)N3CCN(c4cnccn4)CC3)c(C)c2c1 |  | inactive: 6.84%

— PubChem BioAssay AID624202 (National Center for Advancing Translational Sciences (NCATS), 2012)
